Data: ChEMBL document CHEMBL4888484, “Replenishing the malaria drug discovery pipeline: Screening and hit evaluation of the MMV Hit Generation Library 1 (HGL1) against asexual blood stage Plasmodium falciparum ,using a nano luciferase reporter read-out” (2022)
Hit rate of the full screen: of about 150,000 compounds, about 540 (0.36%) showed an effect of 50% or more. This is one part of the list.

Each compound was assayed on Plasmodium falciparum (assay: Primary screen in NF54 nanoGlo assay, in single point, at 2uM, 72h; a lower Z score goes with more inhibition). Settings: timepoint 72 hour.
Assay type: functional, Erythrocyte

**Q.** For CC(C)n1ccc(CS(=O)(=O)[C@H]2CCOC2)n1, which “% Inhibition” value is on record?
**A.** Its value is -4%.

**Q.** And the Z score?
**A.** The Z score was 0.75.

**Q.** How did the “% Inhibition” value turn out when O=C(NCc1ccco1)C1Cc2ccccc2N2CCCCC12 (stereo not given) was run?
**A.** The value was -7%.

**Q.** What about the Z score of the same compound?
**A.** The Z score was 1.05.

**Q.** For NC(=O)NC1(Cc2cccc(F)c2)CCC1, which “% Inhibition” value is on record?
**A.** Its value is -4%.

**Q.** And the Z score?
**A.** The Z score was 0.45.

**Q.** Which results are given for CN(C)CCN(CC1CCCCC1)C(=O)NCc1ccc(F)cc1?
**A.** % Inhibition: -12%; Z score: 2.21

**Q.** How did the “% Inhibition” value turn out when CC1=NN(c2nc(-c3ccc(Cl)c(Cl)c3)cs2)C(=O)[C@H]1C was run?
**A.** Its value is 7%.

**Q.** And the Z score?
**A.** Its Z score is -0.83.

**Q.** What does the source list for O=C(Nc1ccc(-c2ccc(N3CCCCC3)nn2)cc1)c1ccc2c(c1)OCO2?
**A.** % Inhibition: -5%; Z score: 0.59

**Q.** Which results are given for COCc1cccc(OCc2noc3c2CCCC3)c1?
**A.** % Inhibition: 25%; Z score: -3.61

**Q.** For Cc1noc(C)c1CN1C(=O)[C@@H]2CC[C@H]1CN(C(=O)c1ccc(N)nc1)C2, which “% Inhibition” value is on record?
**A.** Its value is -11%.

**Q.** And the Z score?
**A.** The Z score was 2.11.

**Q.** Which results are given for CC1CCN(c2nccnc2Oc2ccc(C(=O)NCc3ccccc3Cl)cc2)CC1?
**A.** % Inhibition: 67%; Z score: -10.64

**Q.** For Cn1ccc(NC(=O)N(Cc2cccc(F)c2)C2CCC2)cc1=O, which “% Inhibition” value is on record?
**A.** Its value is 0%.

**Q.** What about the Z score of the same compound?
**A.** The Z score was -0.04.

**Q.** Which results are given for Cc1cccc(CN2CCOc3ccc(C4=Cc5ccccc5C4)cc3C2)n1?
**A.** % Inhibition: -3%; Z score: 0.43

**Q.** C[C@H]1CCCN(CCC(=O)N2CCc3ccccc3C2)C1 was tested. Which “% Inhibition” value did it give?
**A.** The value was 25%.

**Q.** And the Z score?
**A.** The Z score was -3.23.

**Q.** For CCCc1nccn1CC(O)CN1CC(C)OC(C)C1 (stereo not given), which “% Inhibition” value is on record?
**A.** The value was -17%.

**Q.** What about the Z score of the same compound?
**A.** Its Z score is 1.4.

**Q.** How did the “% Inhibition” value turn out when Cc1ccc(C(=O)N[C@H]2CO[C@H]3[C@@H]2OC[C@@H]3n2cc(CN(C)Cc3ccccc3)nn2)cc1 was run?
**A.** The value was 27%.

**Q.** And the Z score?
**A.** The Z score was -3.15.

**Q.** For CC(CC(O)c1ccco1)NC(=O)c1ccc(Cl)cn1 (stereo not given), which “% Inhibition” value is on record?
**A.** Its value is -14%.

**Q.** And the Z score?
**A.** Its Z score is 2.19.

**Q.** Which results are given for O=C(Cn1ccc([C@H]2CCCNC2)n1)N1CCC(Cc2ccccc2)CC1?
**A.** % Inhibition: 2%; Z score: -0.4

**Q.** Which results are given for COc1cc(OC)cc(C(=O)N2CCN(c3cc(C)nc(N4CCOCC4)n3)CC2)c1?
**A.** % Inhibition: -15%; Z score: 2.65

**Q.** What does the source list for COC[C@H](C)Nc1ccnc2ccsc12?
**A.** % Inhibition: 6%; Z score: -1.04

**Q.** Which “% Inhibition” value does the source give for COCc1c(C(=O)NCCCN2CCOCC2)cnn1-c1nccc(-c2ccccc2F)n1 here?
**A.** The value was -11%.

**Q.** And the Z score?
**A.** Its Z score is 1.39.

**Q.** For O=C1CNC(=O)N1Cc1nc([C@H]2CCOC2)nn1-c1ccccc1, which “% Inhibition” value is on record?
**A.** Its value is -12%.

**Q.** What about the Z score of the same compound?
**A.** The Z score was 1.53.

**Q.** How did the “% Inhibition” value turn out when O=C(N[C@H]1CCN(c2cc(N3CCOCC3)cnn2)C1)C1CCCC1 was run?
**A.** The value was -11%.

**Q.** What about the Z score of the same compound?
**A.** The Z score was 1.5.

**Q.** For COCCN(CC1CCN(Cc2ccccc2F)CC1)C(=O)c1cc(CC(C)C)on1, which “% Inhibition” value is on record?
**A.** The value was -7%.

**Q.** What about the Z score of the same compound?
**A.** The Z score was 1.05.

**Q.** With Cn1ccnc1CN1C[C@@H]2CC[C@H]1CN(Cc1cscn1)C2 as the compound, how does the “% Inhibition” value read?
**A.** Its value is 1%.

**Q.** What about the Z score of the same compound?
**A.** Its Z score is -0.12.

**Q.** For COc1ccccc1CC(=O)Nc1ccc(N2CCN(Cc3ccccc3)C2=O)nc1, which “% Inhibition” value is on record?
**A.** Its value is -12%.

**Q.** And the Z score?
**A.** Its Z score is 1.26.

**Q.** Which results are given for C[C@H]1CCCCN1C(=N)NC(=O)c1ccccc1?
**A.** % Inhibition: -8%; Z score: 1.46

**Q.** C=C(C)COc1ccccc1C(=O)N1CC[C@]2(OC)CC[C@H](OC)C[C@H]12 was tested. Which “% Inhibition” value did it give?
**A.** Its value is -3%.

**Q.** What about the Z score of the same compound?
**A.** Its Z score is 0.66.

**Q.** With Cc1nc(-c2csc(S(=O)(=O)N3CCC[C@H](C(=O)N(C)Cc4ccccc4)C3)c2)no1 as the compound, how does the “% Inhibition” value read?
**A.** Its value is -10%.

**Q.** What about the Z score of the same compound?
**A.** The Z score was 1.09.

**Q.** For COc1ccc(-c2c(C)nn(C)c2NC(=O)CN2CCCN(C)CC2)cc1, which “% Inhibition” value is on record?
**A.** Its value is -14%.

**Q.** What about the Z score of the same compound?
**A.** The Z score was 2.64.

**Q.** For CC1CN(Cc2ccccc2)CC1NC(=O)NCCn1ccnc1 (stereo not given), which “% Inhibition” value is on record?
**A.** Its value is -6%.

**Q.** And the Z score?
**A.** Its Z score is 0.65.

**Q.** Which “% Inhibition” value does the source give for Fc1ccc(N2CCN(Cc3cccn3-c3nnc(N4CCN(Cc5ccccc5)CC4)s3)CC2)cc1 here?
**A.** The value was 0%.

**Q.** What about the Z score of the same compound?
**A.** The Z score was 0.04.

**Q.** Which results are given for Cc1nc(CC(=O)Nc2cnn(Cc3nnc4n3CCCC4)c2)cs1?
**A.** % Inhibition: -10%; Z score: 2.05

**Q.** Which “% Inhibition” value does the source give for N#Cc1cncc(S(=O)(=O)N2CCc3cnccc32)c1 here?
**A.** The value was -8%.

**Q.** What about the Z score of the same compound?
**A.** The Z score was 1.41.

**Q.** CCN(CCn1cccn1)Cc1ccc2c(c1)CCO2 was tested. Which “% Inhibition” value did it give?
**A.** Its value is 2%.

**Q.** What about the Z score of the same compound?
**A.** The Z score was -0.29.

**Q.** What does the source list for CCN(C(=O)c1cc(C#N)c[nH]1)[C@@H](C)Cc1ccc(OC)cc1?
**A.** % Inhibition: -15%; Z score: 1.62

**Q.** Which results are given for C[C@H](NC(=O)Cn1cc(-c2nnco2)c2ccccc21)c1ccccc1?
**A.** % Inhibition: 6%; Z score: -0.66

**Q.** O=C(c1cnccn1)N1CC[C@H](OCc2ccccc2)C1 was tested. Which “% Inhibition” value did it give?
**A.** The value was -8%.

**Q.** And the Z score?
**A.** The Z score was 1.44.

**Q.** For CCCn1c(=O)c2ccccc2n(CC(=O)NCc2ccco2)c1=O, which “% Inhibition” value is on record?
**A.** Its value is 11%.

**Q.** What about the Z score of the same compound?
**A.** Its Z score is -1.6.

**Q.** For Cn1cc(COc2ccc(O)cc2)cn1, which “% Inhibition” value is on record?
**A.** Its value is 3%.

**Q.** And the Z score?
**A.** The Z score was -0.57.

**Q.** For Cc1cnc(C(C)NC(=O)N[C@@H]2C=C[C@H](CO)C2)s1 (stereo not given in full), which “% Inhibition” value is on record?
**A.** The value was -11%.

**Q.** What about the Z score of the same compound?
**A.** Its Z score is 1.08.

**Q.** O=C1CCCN1CN(C(=O)c1ccc(-c2ccccc2)cc1)c1nccs1 was tested. Which “% Inhibition” value did it give?
**A.** Its value is 12%.

**Q.** What about the Z score of the same compound?
**A.** Its Z score is -2.05.

**Q.** Which results are given for COc1ccc(NC(=O)N(C)Cc2c(C)noc2C)cn1?
**A.** % Inhibition: 8%; Z score: -1.37

**Q.** With Cc1c(CNC(=O)CCC(C)(C)N2CCOCC2)cnn1C as the compound, how does the “% Inhibition” value read?
**A.** The value was -2%.

**Q.** What about the Z score of the same compound?
**A.** Its Z score is 0.28.

**Q.** With CCCOCC(=O)N1CCN(c2nncc3ccccc23)CC1 as the compound, how does the “% Inhibition” value read?
**A.** The value was -11%.

**Q.** And the Z score?
**A.** The Z score was 1.15.

**Q.** O=C(CC1CCC2(CC1)OCCO2)N(c1ccccn1)C1CCCC1 was tested. Which “% Inhibition” value did it give?
**A.** Its value is -4%.

**Q.** What about the Z score of the same compound?
**A.** The Z score was 0.44.

**Q.** Which results are given for C[C@]1(F)CCN(c2ccc(C#N)nc2)C1?
**A.** % Inhibition: -6%; Z score: 0.64

**Q.** For O=S(=O)(NC[C@@H]1CCCC[C@@H]1N1CCOCC1)c1ccoc1, which “% Inhibition” value is on record?
**A.** Its value is 9%.

**Q.** And the Z score?
**A.** Its Z score is -1.52.

**Q.** What does the source list for O=C(Nc1ccc(F)cc1)N1CCN(c2ccc(-c3noc(C4CCCCC4)n3)cc2)CC1?
**A.** % Inhibition: -16%; Z score: 3.22

**Q.** With C[C@H]1CCOCCN1C(=O)Cc1ccc2[nH]ncc2c1 as the compound, how does the “% Inhibition” value read?
**A.** The value was -8%.

**Q.** And the Z score?
**A.** Its Z score is 1.23.

**Q.** CCc1cc(C(=O)N2CCC3(CCCCC3)C2)[nH]n1 was tested. Which “% Inhibition” value did it give?
**A.** The value was -3%.

**Q.** And the Z score?
**A.** Its Z score is 0.32.

**Q.** What does the source list for CC1(C)CN(C(=O)c2cscn2)C[C@]1(O)C1CC1?
**A.** % Inhibition: -1%; Z score: 0.18

**Q.** For CN1CCCC(CNC(=O)c2cscn2)C1c1cccs1 (stereo not given), which “% Inhibition” value is on record?
**A.** Its value is -10%.

**Q.** And the Z score?
**A.** The Z score was 1.16.

**Q.** With CCN1CCN(C(=O)c2cc3n(n2)CCN(Cc2ccc(Cl)cc2)C3=O)CC1 as the compound, how does the “% Inhibition” value read?
**A.** Its value is -7%.

**Q.** And the Z score?
**A.** Its Z score is 1.2.

**Q.** How did the “% Inhibition” value turn out when COc1ccc(NC(=O)C2=NN(CC(=O)Nc3ccc(C)cc3)C(=O)CC2)cc1 was run?
**A.** The value was -5%.

**Q.** And the Z score?
**A.** The Z score was 0.8.

**Q.** With CCc1nc(CN(C)C(=O)c2ccc(-c3cnc(OC)cc3C)cc2)no1 as the compound, how does the “% Inhibition” value read?
**A.** The value was 0%.

**Q.** What about the Z score of the same compound?
**A.** The Z score was 0.

**Q.** CCc1sc(C(C)NC(C)CS(C)(=O)=O)cc1C (stereo not given) was tested. Which “% Inhibition” value did it give?
**A.** The value was -6%.

**Q.** What about the Z score of the same compound?
**A.** Its Z score is 0.91.
